{"source": "PubChem BioAssay AID485344", "about": "(National Center for Advancing Translational Sciences (NCATS), 2010)", "note": "About 6,900 (2%) of roughly 340,000 compounds were called active. No stated cut-off is given here; in the data, active means inhibition above about 30%; inactive means below that, where a call was filed. The list shows a part of the results, in another mix than the full data. Entries without a call were filed so in the source.", "data": [{"target": "D(2) dopamine receptor (Homo sapiens) (UniProt P14416)", "sequence (P14416 whole entry, looked up)": "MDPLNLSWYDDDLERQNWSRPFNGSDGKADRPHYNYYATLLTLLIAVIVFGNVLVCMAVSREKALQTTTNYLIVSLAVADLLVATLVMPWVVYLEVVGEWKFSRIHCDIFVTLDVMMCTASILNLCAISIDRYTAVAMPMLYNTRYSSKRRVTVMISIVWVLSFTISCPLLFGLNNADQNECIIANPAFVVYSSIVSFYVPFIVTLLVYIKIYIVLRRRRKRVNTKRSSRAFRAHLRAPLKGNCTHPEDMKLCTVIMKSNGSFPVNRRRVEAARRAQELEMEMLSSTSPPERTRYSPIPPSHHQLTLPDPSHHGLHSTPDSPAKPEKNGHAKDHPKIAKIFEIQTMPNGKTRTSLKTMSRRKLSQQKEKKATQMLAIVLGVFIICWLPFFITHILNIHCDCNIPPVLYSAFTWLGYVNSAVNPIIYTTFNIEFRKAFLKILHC", "assay": "HTS Assay for Allosteric Antagonists of the Human D2 Dopamine Receptor: Primary Screen for Antagonists; further: 0% is about no effect", "conditions": "HEK293 TREx D2 cells, calcium flux, dopamine EC80; at 10 µM; stronger effect = higher value", "procedure,_shortened": "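Calcium mobilization kinetics were recorded at 1 s intervals in tetracycline-induced HEK293 T-REx D2 cells, first for 180 s after compound addition and then 180 s after EC80 dopamine.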", "values": [{"smiles": "COc1ccc(OC)c(CNC(=O)c2ccc3c(c2)c(C)c(C)n3C)c1", "inhibition": "6.9%"}, {"smiles": "O=C(CSc1nc2ncccc2o1)Nc1cccc(C(F)(F)F)c1", "inhibition": "0.0872%"}, {"smiles": "CCS(=O)(=O)c1oc(-c2ccc(F)cc2)nc1S(=O)(=O)c1ccccc1", "inhibition": "-7.09%"}, {"smiles": "Cc1nc(SCC(=O)Nc2nsc(-c3ccc(C(C)(C)C)cc3)n2)c2c3c(sc2n1)CCCC3", "inhibition": "-11.9%"}, {"smiles": "Cc1ccc(OCCCCN2CCC(C)CC2)c(Br)c1", "inhibition": "active: 107%"}, {"smiles": "COc1ccc(N2CCN(S(=O)(=O)CCNC(=O)Cc3ccc(OC)c(OC)c3)CC2)cc1", "inhibition": "-6.02%"}, {"smiles": "COc1ccc(N2CCN(C(=O)CN3C(=O)COc4ccc(S(=O)(=O)N5CCC(C)CC5)cc43)CC2)cc1", "inhibition": "-11.1%"}, {"smiles": "O=C(c1cnc2c(c1)COc1ccc(Cl)cc1-2)c1ccccc1O", "inhibition": "3.48%"}, {"smiles": "COc1ccc(N2CC(NC(=O)C3CCCCC3)CC2=O)cc1OC", "note": "(configuration not stated)", "inhibition": "-20.6%"}, {"smiles": "Clc1ccccc1CSc1nnc(C2CCNCC2)o1", "inhibition": "-2.17%"}, {"smiles": "CCOc1ccc(NC(=O)CCCOc2cc(=O)n(C)c3ccccc23)cc1", "inhibition": "-12.4%"}, {"smiles": "Cc1ccc2nc(-c3ccc(C)o3)c(Nc3ccc4c(c3)OCCO4)n2c1", "inhibition": "-4.2%"}, {"smiles": "COc1ccc(NC(=O)c2oc3ccccc3c2NC(=O)Cc2coc3ccc(C)cc23)cc1", "inhibition": "-0.0141%"}, {"smiles": "O=C(NCCc1ccccc1)c1ccc(Cn2c(SCc3ccccc3F)nc3cccnc32)cc1", "inhibition": "6.24%"}, {"smiles": "CCCN1CN=C(NS(=O)(=O)c2ccc(NC(C)=O)cc2)NC1", "inhibition": "12.5%"}, {"smiles": "CCc1ccc(NC(=O)CSc2nc(-c3cccc(OC)c3)nc3c2Cc2c(CO)cnc(C)c2O3)cc1", "inhibition": "14.4%"}, {"smiles": "CC(Oc1ccccc1)C(=O)Nc1ccccc1C(=O)OCc1cc(=O)n2nc(C(C)C)sc2n1", "note": "(configuration not stated)", "inhibition": "5.84%"}, {"smiles": "CCCc1cc(=O)[nH]c(Nc2cc(C)cc(C)c2)n1", "inhibition": "-11.9%"}, {"smiles": "Cc1c(C(=O)N(C)C)sc2c1c(=O)n(-c1ccc(Cl)c(Cl)c1)c(=O)n2CC(=O)N1CCCCC1C", "note": "(configuration not stated)", "inhibition": "15.7%"}, {"smiles": "COc1cc(C(=O)N(Cc2ccc(N(C)C)cc2)CC2CCCO2)cc(OC)c1OC", "note": "(configuration not stated)", "inhibition": "-0.354%"}, {"smiles": "CCCC12CN3CC(CCC)(CN(C1)C3c1ccc(OC(C)C)cc1)C2=O", "note": "(configuration not stated)", "inhibition": "0.105%"}, {"smiles": "COc1ccc(-c2noc(-c3ccc(N4CCN(c5ccccc5OC)CC4)c([N+](=O)[O-])c3)n2)cc1", "inhibition": "-11.8%"}, {"smiles": "CC(=O)c1cccc(NC(=O)CC2SC(N3CCCCC3)=NC2=O)c1", "note": "(configuration not stated)", "inhibition": "active: 45.3%"}, {"smiles": "CCOc1ccc(NC(=O)CSc2nnc(CNC(=O)C34CC5CC(CC(C5)C3)C4)n2CC)cc1", "inhibition": "11.6%"}, {"smiles": "CCOC(=O)c1ccccc1NC(=O)Nc1cc2c(cc1N1CCCC1)n(C)c(=O)n2C", "inhibition": "13.8%"}, {"smiles": "Cc1cc2oc(C(=O)Nc3cccc(-c4nc5ccccc5o4)c3)c(C)c2cc1C", "inhibition": "9.08%"}, {"smiles": "COc1ccc(-n2nc3cc(C)c(NC(=O)Cc4ccc(Cl)cc4)cc3n2)cc1", "inhibition": "-8.8%"}, {"smiles": "COc1ccc(OC)c(CNC(=O)CN2N=C(c3ccc(Cl)cc3)CCC2=O)c1", "inhibition": "4.2%"}, {"smiles": "O=C(NCCc1ccc(Cl)cc1)C(=O)NCC(c1cccs1)S(=O)(=O)c1cccs1", "note": "(configuration not stated)", "inhibition": "-3.35%"}, {"smiles": "CC(C)Oc1ccc(CNC(=O)c2ccc3c(c2)N(C)CCS3)cc1", "inhibition": "active: 46.6%"}, {"smiles": "COc1ccc(C(=O)Nc2cc(-c3nc4ccccc4s3)ccc2OC)cc1", "inhibition": "10.4%"}, {"smiles": "COC(=O)C1=C(C(=O)OC)N2C=CC=CC2(C)C(C(=O)OC)=C1C(=O)OC", "note": "(configuration not stated)", "inhibition": "active: 32.3%"}, {"smiles": "O=C(Nc1ccc2nc(SCC(=O)N3CCOCC3)sc2c1)c1ccc(Br)cc1", "inhibition": "-11.5%"}, {"smiles": "CCC(C)NC(=O)CSc1c2c(nc3cc(Cl)ccc13)CCCC2", "note": "(configuration not stated)", "inhibition": "-5.09%"}, {"smiles": "COc1cccc(CNC(=O)C(=O)NCC(c2ccc3c(c2)OCO3)N2CCOCC2)c1", "note": "(configuration not stated)", "inhibition": "-7.17%"}, {"smiles": "CCCOC1(C(F)(F)F)NC(=O)N(c2cccc(Cl)c2)C1=O", "note": "(configuration not stated)", "inhibition": "1.05%"}, {"smiles": "CCOC(=O)N1CCN(S(=O)(=O)CCNC(=O)c2ccc(OC)cc2)CC1", "inhibition": "active: 34.1%"}, {"smiles": "CCCN1CCN(CC2=C(C(=O)OCC)C(c3ccc(OC(C)C)cc3)NC(=O)N2)CC1", "note": "(configuration not stated)", "inhibition": "-6.8%"}, {"smiles": "CSc1nc2c(sc3ccccc32)c(=O)n1Cc1ccc(C)cc1", "inhibition": "0.848%"}, {"smiles": "CCn1c(=O)c(=O)n(CC)c2cc(N3CCCCC3)c(NC(=O)c3ccccc3OC)cc21", "inhibition": "4.25%"}, {"smiles": "CC1CCC(=NNC(=O)Cc2ccccc2)CC1", "note": "(configuration not stated)", "inhibition": "active: 43.5%"}, {"smiles": "CCOc1ccc(-c2nc(CSCC(=O)NCCc3ccc(OCC)c(OCC)c3)c(C)o2)cc1", "inhibition": "-15.5%"}, {"smiles": "COc1ccccc1-c1c(C)nn2c(N3CCN(c4ccccc4)CC3)cc(C)nc12", "inhibition": "10.9%"}, {"smiles": "Cc1ccc(Cl)cc1NC(=O)C1CCCN(c2cnccn2)C1", "note": "(configuration not stated)", "inhibition": "-14.9%"}, {"smiles": "O=C(NCc1ccccc1)C(=O)NCC(c1ccco1)S(=O)(=O)c1cccs1", "note": "(configuration not stated)", "inhibition": "-7.2%"}, {"smiles": "CCc1nn(CC(=O)Nc2cccc(C(C)=O)c2)c(=O)c2cc3sccc3n12", "inhibition": "13.5%"}, {"smiles": "CCS(=O)(=O)c1ncc(Cl)c(C(=O)NCc2ccc(OC)cc2)n1", "inhibition": "-12.9%"}, {"smiles": "CN(C)c1ccc(C(CNS(=O)(=O)c2ccc(Cl)cc2)N2CCOCC2)cc1", "note": "(configuration not stated)", "inhibition": "-11.8%"}, {"smiles": "CCOC(=O)c1ccccc1NC(=O)Cn1c(=O)n(Cc2nc(C)no2)c(=O)c2ccccc21", "inhibition": "-15.5%"}, {"smiles": "CN(c1ccccc1C(=O)O)S(=O)(=O)c1ccc2[nH]c(=O)oc2c1", "inhibition": "-8.71%"}, {"smiles": "O=C(CCn1c(=O)c2ccccc2n(Cc2cccc(Cl)c2)c1=O)NCCc1ccccc1", "inhibition": "-6.98%"}, {"smiles": "CSc1ccc(CCNC(=O)c2ccc3c(Cl)c4c(nc3c2)CCCC4)cc1", "inhibition": "-13.7%"}, {"smiles": "CCCSc1ncc(Cl)c(C(=O)Nc2nc3ccc(C)cc3s2)n1", "inhibition": "12.9%"}, {"smiles": "CCc1ccccc1NC(=O)Cn1nc(C(F)(F)F)c2c1CCC2", "inhibition": "0.788%"}, {"smiles": "Cc1cc(C)c2c(CC(=O)Nc3ccccc3C(F)(F)F)coc2c1", "inhibition": "0.27%"}, {"smiles": "COc1ccc(S(=O)(=O)c2c(O)c3ccc(C(=O)Nc4ccccc4)cc3[nH]c2=O)cc1", "inhibition": "-3.7%"}, {"smiles": "Cc1cccc(N2CCN(C(=O)C3CCN(c4ncnc5c4nc4n5CCCCC4)CC3)CC2C)c1", "note": "(configuration not stated)", "inhibition": "27.1%"}, {"smiles": "COc1cc(Nc2ncc3c(n2)CCN(Cc2cccc(C)c2)C3)cc(OC)c1", "inhibition": "1.05%"}, {"smiles": "Cn1c(=O)c2c(nc(Oc3ccccc3Cl)n2Cc2ccc(C#N)cc2)n(C)c1=O", "inhibition": "24.7%"}, {"smiles": "Cn1nnnc1SCCCNCc1cccc(OCc2ccc(F)cc2)c1", "inhibition": "-6.91%"}, {"smiles": "Cc1oc2c(C)c3oc(=O)c(CC(=O)N4CCCCC4)c(C)c3cc2c1C", "inhibition": "15.8%"}, {"smiles": "CCc1nn(C(C)C(=O)N2CCN(c3ccccc3)CC2)c(=O)c2cc3occc3n12", "note": "(configuration not stated)", "inhibition": "0.576%"}]}]}
